# Whole data set: some 33,000 sequences, median “E-score (-0.5 to 0.5)” near -0.035, cut for the highest 2% near 0.35. The list shows a part of the results.
# Biological target: T1, Pdr3 (UniProt P33200)
# T1 sequence: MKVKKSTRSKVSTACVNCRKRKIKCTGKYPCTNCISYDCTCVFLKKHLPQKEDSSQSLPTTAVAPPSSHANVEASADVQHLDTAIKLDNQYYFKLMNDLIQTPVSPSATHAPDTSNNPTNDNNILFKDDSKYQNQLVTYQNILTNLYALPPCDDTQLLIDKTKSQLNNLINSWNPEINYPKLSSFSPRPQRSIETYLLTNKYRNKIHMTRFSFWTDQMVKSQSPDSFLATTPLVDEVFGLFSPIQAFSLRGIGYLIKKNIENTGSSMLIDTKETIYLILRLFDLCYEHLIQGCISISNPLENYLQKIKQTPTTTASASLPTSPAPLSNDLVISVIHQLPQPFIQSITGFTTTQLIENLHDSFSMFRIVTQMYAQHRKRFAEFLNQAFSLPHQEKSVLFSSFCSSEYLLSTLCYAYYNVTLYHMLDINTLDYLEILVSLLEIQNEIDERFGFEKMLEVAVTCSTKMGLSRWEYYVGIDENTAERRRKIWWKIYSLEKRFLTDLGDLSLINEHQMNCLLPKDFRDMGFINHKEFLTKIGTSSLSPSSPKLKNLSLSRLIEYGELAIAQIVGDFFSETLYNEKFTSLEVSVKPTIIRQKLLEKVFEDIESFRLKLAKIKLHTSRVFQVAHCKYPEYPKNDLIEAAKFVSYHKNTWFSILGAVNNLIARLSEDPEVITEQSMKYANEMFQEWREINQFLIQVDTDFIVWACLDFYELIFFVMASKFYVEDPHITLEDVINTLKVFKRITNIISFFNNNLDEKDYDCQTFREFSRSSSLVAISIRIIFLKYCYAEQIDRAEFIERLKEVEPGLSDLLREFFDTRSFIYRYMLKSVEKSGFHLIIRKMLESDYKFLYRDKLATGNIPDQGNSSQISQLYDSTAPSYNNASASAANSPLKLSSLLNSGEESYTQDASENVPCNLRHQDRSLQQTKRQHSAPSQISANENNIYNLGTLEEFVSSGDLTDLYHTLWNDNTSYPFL
# Experiment: PBM E-score (8-mer binding enrichment) (E-score (-0.5 to 0.5)); higher = stronger / more preferred TF binding; most listed sequences are background and not binding sites
# Conditions: protein concentration: 200 nM; construct: GST-full length
# Procedure, shortened: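 For each ungapped eight-base word taken together with its reverse complement, the Universal PBM Analysis Suite assigned an E-score. Binding data came from GST-tagged yeast transcription factors, applied at about 100-200 nM, on universal all-10-mer Agilent arrays made double-stranded by primer extension. Fluorescent anti-GST marked bound protein, and scans were normalised with masliner.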
row,Sequence,PBM E-score
1,AGGCTTTG,-0.0853
2,CGGGTGGC,0.264
3,CTCCCGGC,0.368
4,AAACGTCT,-0.245
5,CGTTGTCA,0.00446
6,AAGTGGAT,-0.0435
7,AGGTCAGA,-0.118
8,ATGCTCGG,0.199
9,TTAGTCAA,-0.275
10,AACCCTCT,-0.255
11,AGCCTAGC,-0.135
12,AGACCCGA,0.274
13,CCGCGTCA,0.0139
14,AATCGAAG,0.0615
15,CACTCCGG,0.351
16,CAATCCTG,0.0156
17,ATGGCTGA,-0.135
18,CGCCGGAC,0.316
19,ATTTGCGG,0.309
20,CCGATGCC,0.143
21,TAGCGAGA,-0.075
22,AACCCGAA,0.196
23,TGCTACCA,-0.177
24,CTACACTC,-0.144
25,ACCTCTTG,-0.0415

row,Sequence,PBM E-score
1,TAGCACGA,-0.123
2,CCGGGTAC,0.303
3,CTCACCCA,0.0849
4,CCGCAAAA,0.124
5,ATTAGACC,-0.238
6,GTGGGAAA,-0.0227
7,CAACGACC,0.0721
8,AGGACCCC,-0.0385
9,CGGGCCCA,0.0442
10,CCGATTCA,-0.0319
11,ACAACTTC,0.167
12,CGGCCTCA,0.165
13,GAATTAGA,-0.0794
14,ACACTTTG,-0.123
15,GCTGCAAA,-0.0739
16,TTATGAAA,0.0764
17,AGCTCGTC,-0.152
18,GACTATCC,0.0419
19,ATTAGTAG,-0.102
20,CTCCCATC,0.019
21,AACAACTT,0.105
22,GCCACGGA,0.415
23,CAGAGACA,-0.2
24,ACACCTCT,-0.0108
25,CGATTACG,-0.128

row,Sequence,PBM E-score
1,CGTATTCA,0.0955
2,ATATCGAC,0.12
3,ATACCAGC,-0.0813
4,AGGTTGAT,-0.181
5,ATTTGAAG,-0.0814
6,GACCTACC,0.0277
7,CCGACTCA,0.093
8,CAAGAGTA,-0.0895
9,GAGACCAC,-0.156
10,CGATCGGA,0.196
11,AGTTTGTA,0.031
12,AATCGAAA,-0.0443
13,CTCATGTA,-0.0526
14,GCAACGAC,-0.0375
15,AAAGCGGG,-0.00019
16,TATAGAGA,-0.376
17,CGCGACTC,0.02
18,CGTGACAC,0.134
19,AGCAGATG,-0.267
20,CCATTTCA,-0.207
21,GCCCCTTA,-0.0381
22,ACTCTTCG,-0.073
23,GCCCTAAA,-0.219
24,ACCAAACG,-0.123
25,GAGTTTAC,0.0528

row,Sequence,PBM E-score
1,ACTCCAGT,-0.118
2,CTACTGTC,-0.095
3,ACTAACAT,0.11
4,AGTACGAG,0.107
5,AACGGCGT,-0.065
6,CGACTTAG,-0.224
7,GCTAACTA,0.0799
8,GAGTTCGA,0.0915
9,AATCGGGG,0.143
10,AGAAGAAA,-0.0697
11,AATATAGC,0.0191
12,CGCGGGGC,0.304
13,GCTAGCAA,-0.169
14,CAGCCGCC,0.22
15,ACTAGAGC,-0.0831
16,ACATAGGA,-0.164
17,GCTCTCGA,-0.108
18,GAGGTCCC,0.105
19,AATTATCG,0.117
20,TGCGCACA,0.0876
21,TACTAGTA,-0.0111
22,ATATTACC,0.0536
23,CGTGGAAG,0.208
24,CGCCTTAA,-0.0423
25,GGGGGACA,0.0303

row,Sequence,PBM E-score
1,CATTCACG,-0.0839
2,GGTGTGGA,-0.024
3,GGACCTAA,0.129
4,ATCACTTC,0.0927
5,CCCTTAAC,-0.264
6,AGACCCTC,-0.101
7,ATATAATA,0.0909
8,GGGTAACA,-0.0538
9,CACGCGTC,0.287
10,CGCCATGC,0.0232
11,CGCCGTGA,0.132
12,CACGGGGC,0.166
13,AGAGGTCA,-0.0324
14,CTTTTGTA,-0.045
15,AGCGAGAC,-0.0802
16,CTCATGCC,-0.0302
17,ACGACGGG,0.203
18,GTGGTGAA,0.0159
19,TGCAACCA,-0.00155
20,CCTGGACA,-0.158
21,CCTAGTAC,-0.131
22,CTGCACCA,-0.142
23,CCAGGCAA,0.0459
24,CACGGGCA,0.161
25,CAGTAACC,0.0793

row,Sequence,PBM E-score
1,GGTTATCA,-0.123
2,CTTCTGGC,-0.184
3,AACTTTGT,0.158
4,ATTCCCCA,0.00687
5,GGGTTAAC,0.168
6,AGCAAACA,0.0356
7,CAGCGTCA,-0.2
8,CCAGGTCA,-0.207
9,CATTGAGA,-0.11
10,GGATTCCC,0.231
11,CGTTCAAA,-0.0369
12,CATTGCGA,0.0437
13,AGTTCCTG,-0.0933
14,TGGCTCAA,-0.246
15,AATCTGAT,0.0354
16,CCTCTTAC,-0.214
17,CCAAAGCA,0.0272
18,AATTACCC,0.0427
19,CCAGAACC,-0.0209
20,CAGAATGA,-0.0391
21,GAAATGAA,0.154
22,ATCCTTGC,-0.0659
23,AACCATTG,-0.191
24,ACTACCTA,-0.143
25,CCCTAGCA,-0.214

row,Sequence,PBM E-score
1,GCTCTGCC,-0.0992
2,CGACGAAG,0.00229
3,GTGTAGAA,-0.222
4,CTATAGAC,-0.235
5,AGCTTGGG,0.0879
6,GGTTTGCA,0.069
7,CGGAATAA,0.422
8,ATGGTAAA,0.0447
9,AAGATCGT,-0.137
10,CTTTTTAC,-0.0559
11,CACTGCAC,-0.154
12,AGTTCTTG,-0.0977
13,TGCACAAA,-0.235
14,AGCCATAC,-0.325
15,CCCGGATC,0.419
16,CAGGGTCG,0.131
17,CTCTTTTA,-0.383
18,AAAGATCC,0.0608
19,AGGTTCCG,0.478
20,GATGTTGC,0.11
21,ACAGACTC,-0.159
22,GCTGCCAA,-0.0664
